# According to publication PMC5892938:
# The list shows a part of the results. At the low end of the ranking the order means little.
# Biological target: GST-SBP-SLBP (stem-loop binding protein) (UniProt Q14493)
# Assay: targeted RNA Bind-n-Seq;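 also: DESeq read counts versus GST-SBP nonspecific binding control pulldown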
# Details: RBNS binding buffer: 25 mM Tris pH 7.5, 150 mM KCl, 3 mM MgCl2, 0.1% Tween, 0.5 mg/mL BSA, 1 mM DTT; 27 nM protein, 750 pM RNA pool; temperature not stated; high values mean tight binding
row,Sequence,binding signal (log2 fold change)
1,GGUCACGUCUCAAUCAACUCAGUCUCAGGAGUUUACUCCUGUUAAUUCAACAGCUCGCAGUCAAG,-0.335
2,GGUCACGUCUCAAUCAACUCAAUCCCAGGAGUUUACUCCUGCAAUCUCAACAGCUCGCAGUCAAG,0.0774
3,GGUCACGUCUCAAUCAACUCAAUUCCAGGAGUUUGCUCCUGCUAUCUCAACAGCUCGCAGUCAAG,0.0045
4,GGUCACGUCUCAAUCAACUCAUCCUCCAGGGAAAGCCCUGGCAUUCUCAACAGCUCGCAGUCAAG,0.0968
5,GGUCACGUCUCAAUCAACUCUAUUUCCAGGGAAAACCCUGGUUAACUCAACAGCUCGCAGUCAAG,0.0111
6,GGUCACGUCUCAAUCAACUCAACUUCCAGGGAAAACCCUGGCUUACUCAACAGCUCGCAGUCAAG,0.116
7,GGUCACGUCUCAAUCAACUCUUCCCCCAGGGAAAUCCCUGGCUAUGUCAACAGCUCGCAGUCAAG,0.209
8,GGUCACGUCUCAAUCAACUCAACUCCCAGGGAAAGCCCUGGUUAACUCAACAGCUCGCAGUCAAG,-0.118
9,GGUCACGUCUCAAUCAACUCAUUUUCAGGAGUUUACUCCUGCUUUGUCAACAGCUCGCAGUCAAG,-0.0307
10,GGUCACGUCUCAAUCAACUCAACUCCCAGGGAAACCCCUGGUAUUUUCAACAGCUCGCAGUCAAG,0.144
11,GGUCACGUCUCAAUCAACUCAACUCCCAGGGAAAGCCCUGGUAUACUCAACAGCUCGCAGUCAAG,0.301
12,GGUCACGUCUCAAUCAACUCAUUUUCCAGGGAAAUCCCUGGCAUUCUCAACAGCUCGCAGUCAAG,0.095
13,GGUCACGUCUCAAUCAACUCUUUCCCCAGGGAAACCCCUGGUUAACUCAACAGCUCGCAGUCAAG,0.0205
14,GGUCACGUCUCAAUCAACUCAACUUCCAGGGAAACCCCUGGUAUUCUCAACAGCUCGCAGUCAAG,0.0421
15,GGUCACGUCUCAAUCAACUCAUUCCCAGGAGUUUACUCCUGCAAACUCAACAGCUCGCAGUCAAG,0.0948
16,GGUCACGUCUCAAUCAACUCAAUUCCCAGGGAAAGCCCUGGCUUUUUCAACAGCUCGCAGUCAAG,-0.246
17,GGUCACGUCUCAAUCAACUCUUCCCCCAGGGAAAUCCCUGGUUAUGUCAACAGCUCGCAGUCAAG,-0.214
18,GGUCACGUCUCAAUCAACUCAUCUCCCAGGGAAAACCCUGGCAUUCUCAACAGCUCGCAGUCAAG,0.367
19,GGUCACGUCUCAAUCAACUCAUCGUCCAGGGAAACCCCUGGCUAAUUCAACAGCUCGCAGUCAAG,0.0909

row,Sequence,binding signal (log2 fold change)
1,GGUCACGUCUCAAUCAACUCAUUCUCAGGAGUUUCCUCCUGUUUUCUCAACAGCUCGCAGUCAAG,0.1
2,GGUCACGUCUCAAUCAACUCAUAGGAGGGGGGGAAAACCCCUUUACCCUCACCAUCAACAGCUCGCAGUCAAG,0.183
3,GGUCACGUCUCAAUCAACUCCACGGAGGGGGGGAAAACCCCUUUACCCUCAUUAUCAACAGCUCGCAGUCAAG,-0.262
4,GGUCACGUCUCAAUCAACUCUUCAGAGGGGGGGAAAACCCCUUUACCCUCACAAUCAACAGCUCGCAGUCAAG,0.311
5,GGUCACGUCUCAAUCAACUCUUCUUCCAGGGAAAACCCUGGCGUUUUCAACAGCUCGCAGUCAAG,0.0156
6,GGUCACGUCUCAAUCAACUCUUCCCCCAGGGAAAGCCCUGGCAAUGUCAACAGCUCGCAGUCAAG,0.242
7,GGUCACGUCUCAAUCAACUCUAUUCCCAGGGAAAACCCUGGUUAUCUCAACAGCUCGCAGUCAAG,0.0739
8,GGUCACGUCUCAAUCAACUCAUCAGAGGGGGGGAAAACCCCUUUGCCCUCCAAAUCAACAGCUCGCAGUCAAG,-0.0243
9,GGUCACGUCUCAAUCAACUCAUUUCCCAGGGAAACCCCUGGUUUUCUCAACAGCUCGCAGUCAAG,-0.0247
10,GGUCACGUCUCAAUCAACUCAAAAGAGGGGGGGAAAACCCCUUUACCCUCACUAUCAACAGCUCGCAGUCAAG,0.21
11,GGUCACGUCUCAAUCAACUCAUAAGAGGGGGGGAAAACCCCUUUGCCCUCACAAUCAACAGCUCGCAGUCAAG,-0.22
12,GGUCACGUCUCAAUCAACUCAACUUCCAGGGAAACCCCUGGUUUACUCAACAGCUCGCAGUCAAG,-0.0587
13,GGUCACGUCUCAAUCAACUCAUUUCCCAGGGAAAUCCCUGGUUUACUCAACAGCUCGCAGUCAAG,0.149
14,GGUCACGUCUCAAUCAACUCUUUCCCCAGGGAAAGCCCUGGUAUAUUCAACAGCUCGCAGUCAAG,0.13
15,GGUCACGUCUCAAUCAACUCUCUCGAGGGGGGGAAAACCCCUUUGCCCUCAUUCUCAACAGCUCGCAGUCAAG,0.171
16,GGUCACGUCUCAAUCAACUCAUUCCCAGGAGUUUUCUCCUGUUUAUUCAACAGCUCGCAGUCAAG,-0.0654
17,GGUCACGUCUCAAUCAACUCAUUUUCAGGAGUUUCCUCCUGCAUACUCAACAGCUCGCAGUCAAG,0.00561
18,GGUCACGUCUCAAUCAACUCGUCUUCAGGAGUUUUCUCCUGCUAUUUCAACAGCUCGCAGUCAAG,-0.0282
